Assay results from PubChem BioAssay AID1671188 (National Center for Advancing Translational Sciences (NCATS), 2021).
In all, about 100,000 compounds went through this assay and about 250 (0.25%) were called active. The inconclusive results got no clear call from the source; some entries with a clear call stand among them for comparison. Calls follow the shape of the dose curve; as a rule, active = well fitted inhibition curve with a large enough effect; inconclusive = small, poorly fitted or top-dose-only effect; inactive = flat fitted curve, though single readings scatter. Potencies of inconclusive entries are left out as doubtful fits.
% is scaled to controls: 0 for no effect and ±100 for the full control effect; potency is read from the fitted curve at half-maximal effect; tags tell the direction and shape of the fitted curve.
Also: nearly all actives have a fitted effect of over 60% in size.

Each compound was assayed against Alanine aminotransferase 2 (Homo sapiens) (UniProt Q8TD30) (assay: Primary qHTS assay for inhibitors of Glutamate pyruvate transaminase 2 (GPT2)). Conditions: Recombinant GPT2, coupled pyruvate oxidase/HRP Amplex Red fluorescence; activity change, negative = inhibition: at 57.7 µM (top of the series) unless noted; series mostly up to 57.7 µM.
Chain of UniProt Q8TD30 (Q8TD30 whole entry, looked up): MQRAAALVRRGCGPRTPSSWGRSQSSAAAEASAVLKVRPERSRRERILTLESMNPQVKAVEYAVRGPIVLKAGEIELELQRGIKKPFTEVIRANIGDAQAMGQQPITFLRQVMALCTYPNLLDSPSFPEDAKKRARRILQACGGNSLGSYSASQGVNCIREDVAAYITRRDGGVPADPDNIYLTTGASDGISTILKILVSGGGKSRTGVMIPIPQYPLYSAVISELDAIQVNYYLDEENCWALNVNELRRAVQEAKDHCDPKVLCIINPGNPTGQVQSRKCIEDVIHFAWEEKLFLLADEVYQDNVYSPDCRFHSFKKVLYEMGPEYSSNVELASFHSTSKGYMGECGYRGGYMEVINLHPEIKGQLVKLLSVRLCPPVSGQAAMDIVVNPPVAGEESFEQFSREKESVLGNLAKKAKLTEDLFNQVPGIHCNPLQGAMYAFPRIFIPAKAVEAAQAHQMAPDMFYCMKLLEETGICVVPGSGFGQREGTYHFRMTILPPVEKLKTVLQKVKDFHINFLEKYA
Method in brief: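 Fluorescence of coupled pyruvate oxidase/HRP/Amplex Red system (50uM Amplex, 30 min, dark) reports pyruvate formed by GPT2. Enzyme reaction: 10ng/uL GPT2, 2mM L-alanine, 250uM a-KG, 30 min room temperature, pH 7.5; 50uM AOA control.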
For `Cc1ccc(-c2[nH]ncc2CN2CCN(c3ccc(Cl)cn3)CC2)cc1C`, the Potency was inconclusive [inhibitor, single point]. With `CCNC(=O)CN1C(=O)NC(CCc2ccccc2)(C2CCNCC2)C1=O` (stereo not given) the Potency was inconclusive [inhibitor, full curve, poor fit]. In the case of `COCCOCC(=O)NCC12CCC=C1N(C)C(=O)CC2` (stereo not given), the “outcome” value is reported as “inactive”. `C#CCNC(=O)C1CCCCN1Cc1ccc(-c2ccsc2)cc1` (stereo not given) was tested, and the “activity change, negative = inhibition” value was inactive: -3.65%. For `O=C(CCn1ccc(=O)[nH]c1=O)N1CCn2nc(Cc3ccccc3)cc2C1`, the Potency was inconclusive [inhibitor, single point]. For `COCCOC1CN(C2CCN(Cc3ccncc3)CC2)C12CCCCC2` (stereo not given), the Potency was inconclusive [inhibitor, single point]. For `CCNC(=O)N[C@H]1CO[C@H]2[C@@H]1OC[C@@H]2Nc1nccc(-c2ccc(-c3ccccc3)cc2)n1`, the “activity change, negative = inhibition” value was inactive: -5.37%. In the case of `CN(C(=O)C1(N)CC1)C1CCCN(CCc2ccccc2)C1` (stereo not given), the Potency is reported as inconclusive [inhibitor, single point]. In the case of `COCc1ccc2c(c1)c(OC(C)(C)C(=O)NCC[S+](C)(=O)[O-])nn2CCC(C)C`, the Potency is reported as inconclusive [inhibitor, single point]. `O=C(CCC1CCN(C(=O)[C@@H]2C[C@@H]3C=C[C@H]2C3)CC1)Nc1ccc2c(c1)OCCO2` was tested, and the Potency was inconclusive [inhibitor, single point]. With `CC(C)(C)NC(=O)N1CCCC1c1nc(CCOCC2CC2)no1` (stereo not given) the “outcome” value was “inactive”. With `O=[S+]1([O-])NC2(CCCN(Cc3cccc4ccccc34)C2)CNc2ccccc21` (stereo not given) the Potency was inconclusive [inhibitor, single point]. `O=[S+]([O-])(c1ccccc1)N1CCc2nc(C3CC3)nc(-c3ccc(Cl)cc3)c2C1` was tested, and the “activity change, negative = inhibition” value was inactive: 3%. With `CN1CCCN(C(=O)CCC[C@@H]2[C@H]3CCCN4CCC[C@@H](CN2Cc2cccnc2)[C@@H]34)CC1` the “activity change, negative = inhibition” value was inactive: -5.14%. In the case of `COc1cccc(-c2ncc(CNC(=O)C3NCCc4[nH]cnc43)s2)c1` (stereo not given), the Potency is reported as inconclusive [inhibitor, partial curve, poor fit]. `COc1ccc(CCc2nc(NC(=O)Cn3nc4c(cc3=O)CCCCC4)n[nH]2)cc1` was tested, and the Potency was inconclusive [inhibitor, single point]. `COc1ccc(NC(=O)c2ccc3c(c2)N(S(C)(=O)=O)CC3)cc1OC` was tested, and the Potency was inconclusive [inhibitor, single point]. In the case of `Cc1cc(C)cc(-c2ccc(CN3CCCC(NC(=O)c4cccc(Cl)c4)C3)cc2)c1` (stereo not given), the “outcome” value is reported as “inactive”. `COc1cccc(C(=O)N2CCN(c3cc(-c4ccccc4)[nH]n3)CC2)c1OC` was tested, and the “outcome” value was “inactive”. For `O=C(N[C@H]1CCOC[C@H]1C1CCOCC1)c1cccc(-n2cnnc2)n1`, the “activity change, negative = inhibition” value was inactive: -3.78%. In the case of `Cc1nn2c(c1-c1ccnn1C(C)C)N(C(=O)COc1ccccc1C(N)=O)CCC2`, the “activity change, negative = inhibition” value is reported as inactive: -8.21% [at 88.5 µM]. `Cc1cnc(CC2CCN(S(=O)(=O)c3ccc4c(c3)CCC4)C2)n1Cc1ccccc1` (stereo not given) was tested, and the “outcome” value was “inactive”. `Cc1cn2nc(C(=O)Nc3ccc(N(C)C)cc3)cc2c(N2CCCC2)n1` was tested, and the Potency was inconclusive [inhibitor, single point]. For `O=C(NC1CCCCCC1)C1CCc2nnc(-c3ccccn3)n21` (stereo not given), the Potency was inconclusive [inhibitor, single point]. In the case of `CNC(=O)[C@@H]1CN(C(=O)c2cncn2C)C[C@H]1COC`, the Potency is reported as inconclusive [inhibitor, single point]. In the case of `COC(=O)[C@@H](Cc1cccnc1)NC(=O)[C@H]1CN(C(=O)Nc2ccccc2)CCN1S(=O)(=O)c1ccccc1`, the Potency is reported as inconclusive [inhibitor, partial curve, poor fit]. In the case of `Cc1ccc(N2CC(c3noc(-c4ccc5c(c4)OCO5)n3)CC2=O)cc1` (stereo not given), the Potency is reported as inconclusive [inhibitor, single point]. In the case of `COc1cccc(CNC(=O)[C@@H]2CCCN2c2nccc(Nc3ccccc3Cl)n2)c1`, the “outcome” value is reported as “inactive”. For `CC1CCN(C(=O)CCC[C@H]2NC[C@@H]3C[C@H]2CN(Cc2ccccc2)C3)CC1`, the Potency was inconclusive [inhibitor, partial curve, poor fit]. For `COc1ccc(S(=O)(=O)N2CCC3(CC2)CC(CC(=O)NC2CC2)CCO3)cc1` (stereo not given), the Potency was inconclusive [inhibitor, single point]. For `CCN(CC)Cc1nc(C2(O)CCN(C3CCC(F)(F)CC3)CC2)cs1`, the “activity change, negative = inhibition” value was inactive: 0.473% [at 88.5 µM]. `CCCS(=O)(=O)N1CCc2n[nH]c(=O)n2CC1` was tested, and the “outcome” value was “inactive”. In the case of `O=C1NCCCCCCN(Cc2ccc(F)c(F)c2)[C@H]2CCC[C@@H]12`, the “outcome” value is reported as “inactive”. With `CCCCN1CCC(CNC(=O)c2c3n(c4ccccc24)CCCO3)CC1` the Potency was inconclusive [inhibitor, single point]. `CN1C(=O)CO[C@H](c2ccc(NC(=O)c3cccc(C#N)c3)cc2)[C@H]1CO` was tested, and the “outcome” value was “inactive [at 88.5 µM]”. For `O=C(NC1CC1)C1CCCN1C(=O)c1cccc(-c2ccccn2)c1` (stereo not given), the “activity change, negative = inhibition” value was inactive: -16.5% [at 88.5 µM]. In the case of `CC(C)Cc1cc(C(=O)N2CCc3nc(-c4ccccc4)[nH]c3C2)nc(=O)[nH]1`, the Potency is reported as inconclusive [inhibitor, single point]. With `O=C(NC1CCS(=O)(=O)C1)c1cc2c(s1)CN(C1CCCC1)C2` (stereo not given) the Potency was inconclusive [inhibitor, single point]. In the case of `COc1ccc2c(c1)C(=O)N(CCc1ccc(S(=O)(=O)NC(=O)NC3CCCCC3)cc1)C(=O)C2(C)C`, the Potency is reported as inconclusive [inhibitor, full curve, poor fit]. In the case of `O=C(c1ccc2[nH]ccc2c1)N1C[C@@H](CO)[C@H](c2nc(C3CC3)no2)C1`, the Potency is reported as inconclusive [inhibitor, partial curve]. With `Cc1ccc(F)c(OCC(=O)c2ccc3c(c2)N(C(C)C(=O)NCc2ccco2)C(=O)CO3)c1` (stereo not given) the Potency was inconclusive [inhibitor, full curve, poor fit]. `COc1ccccc1Cn1c(=O)c(C(=O)NC(C)c2ccc(F)cc2)nc2cccnc21` (stereo not given) was tested, and the Potency was inconclusive [inhibitor, single point]. With `CC1CCC23COC(=O)C2=CC(O)CC3C1(C)CCC1=CC(=O)OC1O` (stereo not given) the Potency was inconclusive [inhibitor, single point]. In the case of `CC(C)c1ccc(C(=O)N2CCC(Cc3nc(-c4ccc(F)cc4)no3)CC2)cc1`, the “outcome” value is reported as “inactive”. With `COc1ccc(C(=O)N2CCCOCCNC(=O)[C@@H]3CCCC[C@@H]32)c(OC)n1` the Potency was inconclusive [inhibitor, single point]. With `c1cc(CN2CCc3c(sc4ncnc(N5CCCC5)c34)C2)ccn1` the Potency was inconclusive [inhibitor, single point]. `CC1C/C=C/C=C\CCCCC(O)C/C=C/C(=O)O1` (stereo not given) was tested, and the Potency was inconclusive [inhibitor, single point]. In the case of `CC(C)(C)C(=O)NC1CCN(c2cn[nH]c(=O)c2)CC1`, the Potency is reported as inconclusive [inhibitor, single point]. In the case of `Cc1occc1-c1nc2ccncc2[nH]1`, the Potency is reported as inconclusive [inhibitor, single point]. `CCc1ccc(C(=O)NC2CCN(c3cnn(C)c(=O)c3)CC2)cc1` was tested, and the Potency was inconclusive [inhibitor, single point]. With `O=C(c1cc(CN2CCOCC2)on1)N1CCC(c2nc(C3CCOCC3)no2)C1` (stereo not given) the “activity change, negative = inhibition” value was inactive: -3.81%. With `Cc1csc(Nc2ccc3c(n2)CN(C)C(=O)CO3)n1` the Potency was inconclusive [inhibitor, partial curve, poor fit]. `CC(=O)Nc1ccc(CN2C(=O)OC3(CCN(C(=O)c4scnc4C)CC3)C2(C)c2ccccc2)cc1` (stereo not given) was tested, and the Potency was inconclusive [inhibitor, full curve, poor fit]. For `Cc1c(NC(=O)OC[C@@H]2COCCN2)cn2ncnc(Nc3ccc4c(cnn4Cc4cccc(F)c4)c3)c12`, the Potency was inconclusive [inhibitor, single point]. With `COc1ccccc1CN1CCCC2(Cc3ccccc3CNC2=O)C1` (stereo not given) the Potency was inconclusive [inhibitor, single point]. For `O=C1NCC2(CCN([S+](=O)([O-])c3cccs3)CC2)Oc2ccccc21`, the Potency was inconclusive [inhibitor, partial curve, poor fit]. With `C=CC(=O)Nc1cccc(CN2C(=O)N(c3c(Cl)c(OC)cc(OC)c3Cl)Cc3cnc(NCCCCN(CC)CC)nc32)c1` the Potency was inconclusive [inhibitor, single point]. `CC(C)C(NC(=O)c1cccc(C#N)c1)C(=O)N1CCN(c2ccccn2)CC1` (stereo not given) was tested, and the Potency was inconclusive [inhibitor, partial curve, poor fit]. With `Cc1cc(N2CCOC(C(F)(F)F)C2)nc(-c2ccccc2)n1` (stereo not given) the Potency was inconclusive [inhibitor, partial curve, poor fit]. With `O=C(Nc1cccc(C(F)(F)F)c1)c1nc2c(o1)CCN(Cc1ccccc1)CC2` the Potency was inconclusive [inhibitor, single point]. With `Cn1c(COc2cccc(CN3CCCC3)c2Cl)nnc1C1CC(N)C1` (stereo not given) the Potency was inconclusive [inhibitor, single point]. `CCN(CC)Cc1cnc2c(C(=O)NCc3nc(C)cs3)cnn2c1` was tested, and the “activity change, negative = inhibition” value was inactive: 1.77%. For `O=C(c1ccc(Cl)cc1)N1CCC(Cc2nc(-c3cnccn3)no2)CC1`, the Potency was inconclusive [inhibitor, single point]. `O=C(NC1CCCN(c2cc(-c3ccccc3)[nH]n2)C1)c1ccc2[nH]ccc2c1` (stereo not given) was tested, and the “activity change, negative = inhibition” value was inactive: -20.7%. In the case of `CC(=O)N1CCN(C(=O)CCC2CCN(c3cc(NC4CC4)ncn3)CC2)CC1`, the Potency is reported as inconclusive [inhibitor, single point].
